Source: PubChem BioAssay AID588855 (National Center for Advancing Translational Sciences (NCATS), 2011)
The whole screen tested about 410,000 compounds, of which about 5,000 (1.2%) were called active. The inconclusive results got no clear call from the source; some entries with a clear call stand among them for comparison. Calls come from the whole dose curve; as a rule, active = well fitted inhibition curve with a large enough effect; inconclusive = small, poorly fitted or top-dose-only effect; inactive = no such curve, though single readings can be large or run the other way. A potency beside an inconclusive call is a rough fit, not a confirmed value.

Experiment: qHTS for Inhibitors of TGF-b; note: nearly all actives have a fitted effect of over 65% in size
Settings: HepG2 CAGA-GFP TGF-b/SMAD3 reporter, GFP fluorescence, 18 h, TGF-beta stimulated, 500 pg/mL final; series mostly up to 46.1 µM; activity, negative = inhibition: at the top concentration
Method in brief: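 HEPG2 CAGA-GFP cells (1000/well, DMEM with 1% FBS) were pre-incubated 2 h at 37 degrees C, given compound by pin tool, then stimulated with TGF-beta at 500 pg/mL final for 18 h before per-cell GFP fluorescence imaging.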
% is set by controls: 0 for no effect and ±100 for the full control effect; potency is the fitted concentration of half-maximal effect; tags give direction and shape of the fitted curve.

| SMILES | activity, negative = inhibition | Potency |
| --- | --- | --- |
| O=C(c1ccc2c(c1)OCO2)N1CCN(c2ccc(C(F)(F)F)cn2)CC1 | inactive: -7.89% |  |
| O=[N+]([O-])/C=C/c1ccc2c(ccn2Cc2ccccc2)c1 |  | inconclusive: 2.82 µM [inhibitor, single point] |
| CCc1ccc(C2=NN(c3ccc(S(N)(=O)=O)cc3)C(c3ccc(F)cc3)C2)cc1 (stereo not drawn) |  | inconclusive: 15.8 µM [inhibitor, partial curve, poor fit] |
| CCCN1CCCc2cc(CN)ccc21 |  | inconclusive: 11.2 µM [inhibitor, partial curve, poor fit] |
| COc1cc(CNCCc2ccccc2)cc(Br)c1OCC(=O)Nc1ccccc1C |  | inconclusive: 28.2 µM [inhibitor, single point] |
| Cc1cccnc1NC(=S)NC(=O)c1cccs1 |  | inconclusive: 35.5 µM [inhibitor, single point] |
| Fc1ccccc1CNC(=S)Nc1cccc(C(F)(F)F)c1 |  | inconclusive: 35.5 µM [inhibitor, single point] |
| CCn1c(N2CCN(C(=O)Nc3ccc(F)cc3)CC2)nc2ccccc21 |  | inconclusive: 35.5 µM [inhibitor, single point] |
| N/C(=N\OC(=O)c1cccnc1)c1ccccc1Cl |  | inconclusive: 0.447 µM [inhibitor, full curve, poor fit] |
| Cc1ccc(-n2c(-c3ccc(Cl)cc3)c[n+]3c2CCC3)cc1 | inactive: -21% |  |
| CCc1ccc(CNC(=O)C(CC)n2nc(C)c3c(C)n(-c4ccccc4)nc3c2=O)cc1 (stereo not drawn) |  | inconclusive: 7.08 µM [inhibitor, full curve] |
| CCOC(=O)N1CCN(c2nc(-c3ccc(Cl)cc3)cs2)CC1 |  | inconclusive: 15.8 µM [inhibitor, single point] |
| COc1ccc(N=C2SCC(c3ccc(C)cc3)=NN2CCO)cc1 |  | inconclusive: 15.8 µM [inhibitor, single point] |
| CC(C)(C)CC(C)(C)N=C1Nc2ccc(Cl)cc2NC12C[C@H]1CCC(=O)N3CC[C@@H](C2)[C@@H]13 (stereo partly drawn) |  | inconclusive: 14.1 µM [inhibitor, single point] |
| CC[n+]1ccnc2ccccc21 |  | active: 3.16 µM |
| O=C(O)CCC(=O)N1N=C(c2ccccc2)CC1c1ccc2nccnc2c1 (stereo not drawn) |  | inconclusive: 6.31 µM [inhibitor, single point] |
| CC(=O)c1ccc(NC(=O)C2CCCN(S(=O)(=O)c3cn(C)cn3)C2)cc1 (stereo not drawn) | inactive: 0.734% |  |
| Cc1ccc(N(Cc2ccco2)C(=O)c2ccc(N3CCCCC3)c([N+](=O)[O-])c2)cc1 |  | inconclusive: 35.5 µM [inhibitor, single point] |
| C#CC[N+]1(CC#Cc2ccccc2)CCCCC1 |  | inconclusive: 14.1 µM [inhibitor, single point] |
| COC(=O)c1ccc(NC(=S)NCCCn2ccnc2)cc1 | inactive: 13.9% |  |
| CC(C)c1ccc(/C=C2\SC(=S)N(CCC(=O)N3CCCCC3CCO)C2=O)cc1 (stereo not drawn) | inactive: -22.8% |  |
| C#Cc1ccc(NC(=O)C2(C)CCN2C(=O)c2ccccc2CCc2ccccc2)cc1 (stereo not drawn) |  | inconclusive: 1 µM [inhibitor, full curve] |

| SMILES | activity, negative = inhibition | Potency |
| --- | --- | --- |
| COc1ccc(C(CNC(=O)c2cccc(S(=O)(=O)Nc3ccccc3Cl)c2)N2CCOCC2)cc1 (stereo not drawn) |  | inconclusive: 31.6 µM [inhibitor, single point] |
| CC(O)(c1cccc(F)c1)c1nc(-c2cc(F)cc(F)c2)cs1 (stereo not drawn) |  | active: 11.2 µM |
| COc1ccc(-c2csc(NC(=O)COC(=O)C3=COCCO3)n2)cc1 | inactive: -3.52% |  |
| CCCCOCCCNC(=S)Nc1ccc(S(=O)(=O)N2CCOCC2)cc1 |  | inconclusive: 7.94 µM [inhibitor, partial curve] |
| COc1ccc(OCCn2cc(/C=N/NC(=O)c3ccncc3)c3ccccc32)cc1 |  | inconclusive: 20 µM [inhibitor, single point] |
| COc1ccc(OC)c(NC(=O)c2ccc(-c3csc(C)n3)cc2)c1 | inactive: 18.7% |  |
| Cc1ccc(-c2ccc(CN3C(C)C(=O)N(Cc4cn(CC5CCCCC5)nn4)CCS3(=O)=O)cc2)cc1 (stereo not drawn) |  | inconclusive: 17.8 µM [inhibitor, single point] |
| CSc1nc2ccc(NS(=O)(=O)c3ccc4c(c3)OCCO4)cc2s1 |  | inconclusive: 8.91 µM [inhibitor, partial curve, poor fit] |
| COc1cc(O)c(C(=O)/C=C/c2ccccc2)c(OC)c1 |  | inconclusive: 28.2 µM [inhibitor, single point] |
| CCOC(=O)C1(CC2CC2)CCN(Cc2cn[nH]c2-c2cccc(F)c2)CC1 |  | inconclusive: 20 µM [inhibitor, partial curve, poor fit] |
| C=CCNC(=O)/C(C#N)=C/c1ccccc1OCc1ccc(C(=O)OC)cc1 |  | inconclusive: 17.8 µM [inhibitor, partial curve, poor fit] |
| O=C(CCCN=C1NS(=O)(=O)c2ccccc21)OCc1ccc(F)cc1 |  | inconclusive: 3.16 µM [inhibitor, single point] |
| COc1cc(-c2noc(C)c2C#CC2(N)CCCCC2)cc(OC)c1OC |  | inconclusive: 10 µM [inhibitor, partial curve] |
| Cc1ccc(C)c(NNC(=O)C(=O)NNc2cc(C)ccc2C)c1 | inactive: 1.75% |  |
| CCOC(=O)C1CCCN(C(=O)c2cc3c(=O)n(C)c4ccccc4c3s2)C1 (stereo not drawn) |  | inconclusive: 6.31 µM [inhibitor, partial curve, poor fit] |
| O=C(CSc1nc(O)c(C2CCCCC2)c(=O)[nH]1)NCC1CCCO1 (stereo not drawn) |  | inconclusive: 14.1 µM [inhibitor, partial curve, poor fit] |
| O=C(Nc1ccccc1N1CCOCC1)C1CCN(S(=O)(=O)c2ccccc2F)CC1 | inactive: -21.7% |  |
| O=C(NC1CCN(Cc2ccccc2)CC1)c1ccc(CS(=O)c2ccccc2Cl)o1 (stereo not drawn) | inactive: 4.84% |  |
| CCO[C@@H]1OC(C(=O)NC2CC2)=C[C@H](c2c[nH]c3ccccc23)[C@H]1CCCO | inactive: -3.71% |  |
| O=C1N(Cc2cccnc2)C[C@@H]2C[C@@H](c3ccc(-c4ccccc4)cc3)N3CCC[C@@]123 |  | inconclusive: 14.1 µM [inhibitor, partial curve] |
| O=S(=O)(NCCc1ccc(F)cc1)c1cc(C(F)(F)F)ccc1Br |  | inconclusive: 17.8 µM [inhibitor, partial curve, poor fit] |
